Reference: paper PMC6919601, “Identification of Plasmodium dipeptidyl aminopeptidase allosteric inhibitors by high throughput screening” (PLoS ONE, 2019)
Hit rate of the full screen: of about 110,000 compounds, about 230 (0.21%) showed an effect of 50% or more. The list shows a part of the results.

Each compound was assayed against DPAP1 (Plasmodium falciparum, UniProt Q8IIJ9) (assay: primary screen, percent inhibition; read by cleavage of a fluorogenic dipeptide substrate; higher = more effect of the substance).
Design: species or system P. falciparum D10 trophozoite lysates; single well
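Also: 30 min substrate incubation versus DMSO and 10 µM JCP410 controls.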

DPAP1, sequence (Q8IIJ9 whole entry, looked up): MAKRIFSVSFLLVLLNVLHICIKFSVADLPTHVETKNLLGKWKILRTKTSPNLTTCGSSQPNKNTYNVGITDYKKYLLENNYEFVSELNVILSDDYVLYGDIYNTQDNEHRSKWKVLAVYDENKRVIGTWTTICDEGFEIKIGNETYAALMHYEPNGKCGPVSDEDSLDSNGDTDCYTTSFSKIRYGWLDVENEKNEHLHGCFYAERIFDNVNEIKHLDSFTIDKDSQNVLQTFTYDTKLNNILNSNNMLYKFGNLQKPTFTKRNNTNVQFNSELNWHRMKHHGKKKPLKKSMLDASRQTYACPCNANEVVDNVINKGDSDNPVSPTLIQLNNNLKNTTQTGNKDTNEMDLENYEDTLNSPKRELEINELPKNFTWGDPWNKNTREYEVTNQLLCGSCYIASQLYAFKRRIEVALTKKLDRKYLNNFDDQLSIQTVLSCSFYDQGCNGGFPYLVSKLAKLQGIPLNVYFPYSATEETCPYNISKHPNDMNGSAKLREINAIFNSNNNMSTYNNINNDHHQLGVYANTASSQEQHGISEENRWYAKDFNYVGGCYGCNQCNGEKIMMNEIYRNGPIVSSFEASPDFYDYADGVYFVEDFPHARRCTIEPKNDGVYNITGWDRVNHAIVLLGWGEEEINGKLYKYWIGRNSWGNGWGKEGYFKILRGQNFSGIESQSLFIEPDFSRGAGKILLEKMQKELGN

Row | Compound | % Inhibition @ 10 uM [%]
1 | Cc1ccc(NC(=O)Nc2cccc(C(=O)O)c2)cc1 | -1.61
2 | COCCn1c(C)cc(C(=O)C(=O)Nc2nnc(-c3ccccc3)s2)c1C | 0.655
3 | COc1cc(/C=C2\S/C(=N/c3ccc(F)cc3)N(C)C2=O)ccc1OC(C)C(=O)O (stereo not shown) | 1.28
4 | NC(=O)NC(=O)Nc1cccc2ccccc12 | -3.93
5 | O=S1(=O)CCC(N2CCCCC2)C1 (stereo not shown) | 0.0345
6 | CCOC(=O)C1=C(C)N=c2s/c(=C\c3ccc(C)cc3)c(=O)n2C1c1ccc(OC)cc1 (stereo not shown) | -6.88
7 | O=C(O)CNC(=O)c1ccco1 | -3.93
8 | CC1(C)CC(=O)c2sc(NC(=O)Cc3ccc(Br)cc3)nc2C1 | -2.98
9 | CCc1ccccc1NS(=O)(=O)c1ccc(NC(C)=O)cc1 | -4.94
10 | C=C(C)Cn1c(SCC(=O)Nc2ccccc2)nc2c1c(=O)[nH]c(=O)n2C | 2.01
11 | COc1ccc(CCN2C(=O)C3C4C=CC(C5CC45)C3C2=O)cc1OC (stereo not shown) | -3.52
12 | O=C(NCCCn1ccnc1)c1cc(-c2ccc(O)cc2)on1 | 6.87
13 | CCc1ccc2ncc(S(=O)(=O)c3ccccc3)c(N3CCC(C(N)=O)CC3)c2c1 | -0.246
14 | Cc1ccc(-n2nc3c(=O)n(CCCC(=O)N4CCN(c5ccccn5)CC4)nc(C)c3c2C)cc1 | -6.73
15 | CC(c1ccccc1)C1CC(=O)N(c2ccc(Cl)cc2)C1=O (stereo not shown) | 0.392
16 | CC1Cc2nc(SCC(=O)NCc3ccco3)n(CCc3ccccc3)c(=O)c2S1 (stereo not shown) | 0.8
17 | Cc1ccc(S(=O)(=O)n2nc(C)c(Sc3ccccc3)c2C)cc1 | -2.55
18 | CC1(C)NC(=O)C(C#N)=C(SCc2ccccc2)S1 | 1.72
19 | Cc1ccc(NC(=O)c2cc3c(Cl)nc4ccccc4c3s2)nc1 | 4.68
20 | O=C(CSCc1ccc(Cl)cc1)Nc1ccccc1C(=O)O | 4.67
21 | Oc1ncnc2sc3c(c12)CCCCC3 | -0.693
22 | COc1ccc(OC)c(/C=C2/N=C(c3ccc(OC)c(Br)c3)OC2=O)c1 | -2.9
23 | O=C(Nc1cc(C(F)(F)F)ccc1Cl)c1ccc(C(=O)Nc2cc(C(F)(F)F)ccc2Cl)cc1 | 5.43
24 | Cc1ccc(C(C)C)c(OCC(O)CN2CC(C)OC(C)C2)c1 (stereo not shown) | -1.15
25 | CC(=O)c1cc(C(c2csc(C(C)=O)c2)c2csc(C(C)=O)c2)cs1 | -3.95
26 | COCCNCc1c(C(=O)O)n(Cc2ccccc2Cl)c2ccccc12 | -8.92

Row | Compound | % Inhibition @ 10 uM [%]
27 | CCCC(=O)Nc1ccc(S(=O)(=O)NC2CCCCC2)cc1 | -8.28
28 | CCOc1ccccc1N1CCN(Cc2cccc(Cl)c2)CC1 | -0.261
29 | CCOc1ccc(C(=O)C[n+]2ccc(C(=O)NCc3ccccc3)cc2)cc1 | 5.98
30 | CCCCN(C)CCNC(=O)c1cnc2ccc(S(=O)(=O)N(CC)CC)cc2c1O | -7.85
31 | CN(C)CCN(Cc1ccccc1)Cc1coc2ccccc2c1=O | -1.5
32 | O/N=C(\Cc1ccccn1)c1ccccc1 | -6.11
33 | Cc1cc(O)c2c(C)c(CC(=O)NCc3ccc(Cl)cc3)c(=O)oc2c1 | 0.895
34 | O=C(c1c[nH]c2ccccc12)C1CCCCC1 | -5
35 | CCN1CCN(CC(O)COc2cc(C)ccc2C(C)C)CC1 (stereo not shown) | -0.46
36 | CCCn1c2ccccc2c2cnn(CC(=O)Nc3ccsc3C(=O)OC)c(=O)c21 | -0.238
37 | CC(C(=O)N1CCC2(CC1)OCCO2)N1Cc2ccccc2C1=O (stereo not shown) | 2.37
38 | CCOc1ccc(CC(=O)N2N=C(C(F)F)CC2(O)C(F)F)cc1OCC (stereo not shown) | -4.72
39 | CCN(CC)Cc1c(O)ccc2occ(C(=O)c3cccs3)c12 | 5.2
40 | COC(=O)C1=C(C)N(CCC2=CCCCC2)C(=O)/C1=C\c1ccc(C(=O)O)cc1 | -1.52
41 | O=C(Nc1ccn(Cc2cccc3ccccc23)n1)c1ccc2c(c1)OCO2 | -0.222
42 | Cc1ccc(S(=O)(=O)N2CCN(c3ccccc3C)CC2)cc1 | -0.0619
43 | CCc1ccc(N(CC(=O)N(C)C)S(C)(=O)=O)cc1 | -2.46
44 | COc1ccc(/C=C2/Sc3ccccc3C2=O)cc1[N+](=O)[O-] | -2.64
45 | CCOc1ccc(-c2nonc2NC(=O)c2cccc(C)c2)cc1OCC | -3.24
46 | Oc1ccc(Nc2nc(-c3cccnc3)cs2)cc1 | 4.26
47 | CCN(CC)CCCCOc1ccccc1F | -5.26
48 | CC1(C)CC(=O)C2=C(C1)NC(=O)C(C#N)C2c1ccccc1 (stereo not shown) | -1.37
49 | CC1=C(C(=O)Nc2ccccc2C)C(c2ccc(Cl)cc2)NC(S)=N1 (stereo not shown) | 1.27
50 | COC(=O)c1ccccc1-n1cc2c(c1-c1ccc(Cl)cc1)c(=O)n(C)c(=O)n2C | 2.02
51 | CCOc1cccc(NC(=O)C2CC(=O)N(c3ccc(C)cc3)C2)c1 (stereo not shown) | 3.56
52 | CC(=O)c1ccc(N2CCN(Cc3ccoc3)CC2)cc1 | -1.41

Row | Compound | % Inhibition @ 10 uM [%]
53 | CCCCNc1nc(Oc2ccc(O)nn2)nc(N(CC)CC)n1 | -7.24
54 | Cc1ccc(C2=C/C(=C\c3cccnc3)C(=O)O2)cc1 | -5.01
55 | COc1cc(OC)cc(C2C(C#N)=C(N)Oc3c2c(C)nn3-c2ccccc2)c1 (stereo not shown) | 2.38
56 | O=C(Nc1ccccc1)Nc1cc[n+]([O-])c(S(=O)(=O)c2ccccc2)c1 | 1.82
57 | Cc1ccc(NC(=O)COc2ccc(Cl)cc2Cl)cc1F | -2.03
58 | NC(=O)CSc1nc(N2CCOCC2)nc(N2CCOCC2)n1 | -6.02
59 | Cc1ccc(S(=O)(=O)N2CCN(CCOc3ccc(Cl)cc3)CC2)cc1 | -3.71
60 | COc1cc(C2C3=C(O)CCCC3=NC(C)=C2C(=O)N2CCCCC2)cc(Cl)c1O (stereo not shown) | 0.219
61 | CCOC(=O)C1=CN(C(C)C)C=C(C(=O)OCC)C1c1cccc(O)c1 | -1.48
62 | CC(C)(C)OC(=O)NC1(C(=O)NC2(C#N)CC2)CCCCC1 | -1.41
63 | Cc1ccc(-c2coc3c2c(C)cc2oc(=O)c(CC(=O)O)c(C)c23)cc1 | 2.21
64 | FC(F)(F)C1(C(F)(F)F)N=C(COc2ccccc2)NC(c2ccccc2)=N1 | -3.53
65 | Cc1nn(C2CCCCC2)c(N)c1C#N | 2.16
66 | CC1CCCCC1NC(=O)c1nnc(Cc2ccc(Cl)cc2)o1 (stereo not shown) | -0.999
67 | CCOC(=O)C1CCN(C2CCN(C)CC2)CC1 | 0.472
68 | O=C(COc1ccc2ccccc2c1)NCc1ccc(-n2cccc2)cc1 | -4.04
69 | C/N=C1/S/C(=C\c2cc(C)n(-c3ccccc3F)c2C)C(=O)N1C | -3.04
70 | O=C(C1CC(c2ccc(F)cc2)=NO1)N1CCN(Cc2ccccc2)CC1 (stereo not shown) | -5.79
71 | O=C(Cc1ccc2ccccc2n1)C(F)(F)F | 0.0345
72 | Cc1cccc(OCC(=O)Nc2sc3c(c2C(N)=O)CCCC3)c1 | 2.44
73 | Cc1c(-c2ccccc2)nc2ccccc2c1C(=O)O | -0.687
74 | CCn1cc(C2=NOC(C(=O)Nc3cccnc3Cl)C2)c(C)n1 (stereo not shown) | -1.37
75 | O=C(O)c1ccc(S(=O)(=O)c2ccc3c(c2)C(=O)N(Cc2cccnc2)C3=O)cc1 | -3.09
76 | COc1ccc(C(=O)NCC2OCCc3ccccc32)c(OC)c1 (stereo not shown) | -10.9
77 | O=C1Nc2ccccc2C12OCCO2 | -2.51
78 | N#Cc1cccnc1Cl | 2.34

Row | Compound | % Inhibition @ 10 uM [%]
79 | COCCCNC1CCc2ccccc2C1 (stereo not shown) | 2.22
80 | CC(Oc1ccc(C(C)(C)C)cc1)C(=O)N1CCCCCC1 (stereo not shown) | -6.02
81 | Cc1ccc(NC(CC(=O)C2CC2)c2ccccc2)cc1 (stereo not shown) | 4.6
82 | NC(=O)Cn1c(=O)n(Cc2cccs2)c(=O)c2cccnc21 | -1.66
83 | CCc1nnc(NC(=O)c2sc3nc(-c4cccs4)cc(C(F)(F)F)c3c2N)s1 | 0.487
84 | CCc1nn(C(C)C(=O)N2CCCCCC2)c(=O)c2cc3occc3n12 (stereo not shown) | -3.79
85 | CCN(CC)CC#CC(OC(C)=O)c1ccccc1 (stereo not shown) | -1.98
86 | COCCNC(=O)C1CC(=O)N(C2CCCCC2)C1 (stereo not shown) | -3.58
87 | CCn1c(=N)c(C#N)cc2c(=O)n3ccccc3nc21 | 1.97
88 | COc1cccc(NC(=O)COc2ccccc2OC)c1 | -4.97
89 | Cc1cc(C)c2c(=O)n(CC(=O)NCCc3ccc(Cl)cc3)sc2n1 | 15.6
90 | Cc1nc(Oc2ccc(F)cc2)c(C(=O)O)c(C)c1Cl | -4.35
91 | NC(=O)c1ccc(NC(=O)c2ccccc2F)cc1 | -6.91
92 | Cc1cc(NC(=O)CSc2nnc(Cc3cccn3C)n2C)no1 | 3.33
93 | CC(C)C[C@H](NC(=O)c1ccc(NC(=N)N)cc1)C(=O)N[C@@H](CCCCNC(=O)OCc1ccccc1)C(=O)O | -1.41
94 | COc1ccc2nc(O)c(CN(C)C(=O)c3cccc(Cl)c3)cc2c1 | -2.4
95 | Cc1ccc(C(=O)N(C)Cc2ccccc2)cc1[N+](=O)[O-] | -5.11
96 | COCCNc1nc2c(c(=O)n(C)c(=O)n2C)n1Cc1ccccc1C | 3.6
97 | O=C1c2cccnc2C(=O)N1c1ccccc1 | 1.01
98 | COc1ccc(OC)c(NC(=O)COc2ccc(Cl)cc2Cl)c1 | -1.02
99 | CCCc1nc2nc(C)cc(NCc3ccccc3)n2n1 | 1.3
100 | O=C(COc1ccc(Cl)cc1S(=O)(=O)NCCOCC(F)(F)F)N1CCOCC1 | 3.54
101 | CC(=O)c1ccc(NC(=O)c2cnn3c(C(F)F)cc(C4CC4)nc23)cc1 | -1.28
102 | O=C(Cn1nc(-c2ccccc2)ccc1=O)N1CCCCC1 | 2.18
103 | CCOc1cccc(C(=O)Nc2cccc(-c3nc4ncccc4o3)c2C)c1 | -5.49
